# Data: PubChem BioAssay AID761 (NMMLSC, 2007)
# Among all 190,000 compounds or so, about 400 (0.21%) were called active. The shares of active, inactive and inconclusive entries below differ from those in the screen.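 The calls were made as follows: active = percent activity GTP binding at least 20 points away from the 100% baseline, either down as inhibitor or up as activator; inconclusive = compound flagged as likely green fluorescent from well-wide comparison; inactive = the rest.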
# Biological target: Cell division control protein 42 homolog (Homo sapiens) (UniProt P60953)
# Chain of UniProt P60953 (P60953 whole entry, looked up): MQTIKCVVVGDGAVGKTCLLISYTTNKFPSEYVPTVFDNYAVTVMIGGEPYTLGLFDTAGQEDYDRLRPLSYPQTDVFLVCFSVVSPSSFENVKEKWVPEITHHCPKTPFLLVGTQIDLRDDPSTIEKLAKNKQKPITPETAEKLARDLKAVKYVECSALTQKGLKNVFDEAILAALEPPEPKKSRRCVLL
# Test: wildtype Cdc42 fluorescent GTP binding changes, either direction – biochemical, multiplex bead flow cytometry, Bodipy-GTP, primary screen (AID 761);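 also: median bead fluorescence of bound Bodipy-FL-GTP at 100 nM; 0% = excess unlabeled GTP control and 100% = no compound control; below 100% means less GTP binding so inhibitor and above means activator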
# Details: GST-Cdc42 beads, at 10 µM, actives lie on both sides
row,Compound,percent activity (GTP binding)
1,COc1cccc(CN2CCCC(CNC(=O)c3ccc(F)cc3)C2)c1OC (configuration not stated),inactive: 98%
2,O=C(NC(=S)Nc1nc2ccc(F)cc2s1)c1ccco1,inconclusive: 93%
3,COc1cc(CCC(=O)Nc2ccc(Br)c(C(F)(F)F)c2)cc(OC)c1OC,inactive: 99%
4,Oc1ccc(C2N=C(c3ccccc3)NC(c3ccccc3)=N2)cc1,inconclusive: 106%
5,COc1cc(SC)ccc1C(=O)Nc1ccccc1C#N,inconclusive: 104%
6,Cc1sc2nc(SCC(=O)NCc3ccco3)n(CCc3ccccc3)c(=O)c2c1C,inconclusive: 104%
7,Cc1nnc(SCc2cccc(Cl)c2)n(N)c1=O,inconclusive: 95%
8,CCOc1ccccc1-n1c(C)nc2cc(C(=O)O)ccc21,inconclusive: 97%
9,CC(C)C(=O)Nc1ccc(C(=O)N/N=C/C2CC3C=CC2C3)cc1 (configuration not stated),inconclusive: 104%
10,CSCCCNC(=S)N1CCc2ccccc2C1,inactive: 97%
11,COc1cccc(-c2nn3c(-c4ccccn4)nnc3s2)c1,inconclusive: 90%
12,CC(C)Cn1c(N)c(C(=O)CSc2nc3ccccc3c(=O)n2CCCN2CCOCC2)c(=O)n(C)c1=O,inactive: 94%
13,CCN(CC)S(=O)(=O)c1cccc(C(=O)N/N=C(\C)c2ccc(O)cc2O)c1,inconclusive: 94%
14,CC1CC1c1ccc(/C=C(\C#N)C(=O)Nc2cccc(Cl)c2Cl)o1 (configuration not stated),inactive: 101%
15,Cc1cccc(NC(=O)Nc2ccc(Oc3c(F)c(F)c(F)c(F)c3F)cc2)c1,inconclusive: 107%
16,O=C(COC(=O)c1cc2ccccc2o1)c1ccccc1,inactive: 98%
17,CCn1c(SCc2ccc(C#N)cc2)nnc1-c1cccc(Cl)c1,inconclusive: 92%
18,CCOC(=O)N1CCN(C(=O)CCc2ccc(S(=O)(=O)NCCc3ccccc3)cc2)CC1,active: 33%
19,COCc1nc2ccccc2n1Cc1cccc(C)c1,inconclusive: 95%
20,CCOC(=O)C1(Cc2cccc(OC)c2)CCN(CC2CC=CCC2)CC1 (configuration not stated),inactive: 100%
21,N#CCc1nc2n(n1)Cc1ccccc1-2,inconclusive: 102%
22,COc1ccccc1C1C(C(N)=O)=C(C)Nc2nc(-c3ccccc3Cl)nn21 (configuration not stated),inconclusive: 103%
23,CCN(CCCNC(=O)CCn1c(=O)[nH]c2ccccc2c1=O)c1cccc(C)c1,inconclusive: 110%
24,NC(=O)/C(=N\O)c1ccccc1,inconclusive: 102%
25,CC(C)Cn1c(N)c(C=O)c(=O)[nH]c1=O,inactive: 102%

row,Compound,percent activity (GTP binding)
1,CC(=O)N1CCc2cc(Br)cc(S(=O)(=O)NCCCN3CCCC(C)C3)c21 (configuration not stated),inconclusive: 91%
2,CCc1ccc(Cc2cnc(NC(=O)C3=NCCN3)s2)cc1,inactive: 92%
3,CC(C)CC1CCCCC1OC(=O)C[N+]1(C)CCCCC1 (configuration not stated),inconclusive: 96%
4,O=C(c1cc2sccc2n1Cc1ccccc1)N1CCc2ccccc21,inconclusive: 105%
5,CNS(=O)(=O)c1cccc2cccnc12,inconclusive: 108%
6,N#Cc1cc2c(nc1SCc1nc3ccccc3[nH]1)CCC2,inconclusive: 94%
7,COc1ccc(CNC(=O)c2c(O)c3ccccc3n(C)c2=O)cc1OC,inconclusive: 95%
8,Cc1c(F)cccc1NS(=O)(=O)c1ccc2c(c1)c(=O)n(C)c(=O)n2C,inactive: 97%
9,CNC(=S)Nc1cc(C)ccc1OC(F)F,inconclusive: 97%
10,Cc1cc(Br)ccc1NC(=O)CN1C(=S)NC(C)(C)CC1C (configuration not stated),inconclusive: 89%
11,CCOC(=O)c1ccc(Nc2cc(C)nc3nc(C)nn23)cc1,inactive: 99%
12,COc1c(C)cccc1C(=O)NC(=S)Nc1ccc2c(c1)Cc1ccccc1-2,active: 77%
13,O=C(NCC1CCCO1)c1cccc(S(=O)(=O)NCc2ccccc2)c1 (configuration not stated),inactive: 99%
14,Cc1csc(SCC(=O)c2ccc(S(=O)(=O)N3CCOCC3)cc2)n1,inactive: 103%
15,CCOc1cc(/C=N/NC(=O)C(C)Sc2ccccc2)ccc1O (configuration not stated),inactive: 86%
16,COc1cc2[nH]c(=S)nc(NCCc3ccc(C)cc3)c2cc1OC,active: 45%
17,O=Cc1c(Cl)[nH]c(=O)n1-c1ccccc1,inactive: 99%
18,O=c1oc2c(O)c(O)cc3c(=O)oc4c(O)c(O)cc1c4c23,inconclusive: 86%
19,COc1ccc(S(=O)(=O)Cc2ccc(C(=O)N3CCN(c4cc(Cl)ccc4C)CC3)o2)cc1,active: 74%
20,O=c1c2c(nc3c(-c4ccc(Cl)cc4)c[nH]n13)CCC2,inconclusive: 84%
21,Cc1ccc(NC(=O)N/C=C/c2ccccc2)cc1,inconclusive: 95%
22,CC(=O)N=c1sc2nc3ccccc3nc2n1N(C(C)=O)C(C)=O,inconclusive: 89%
23,CC(C)OC(=O)CCCCCN1C(=O)CSC1=S,inconclusive: 105%
24,COc1ccc(C(=O)NC(=S)N2CC(C)OC(C)C2)cc1 (configuration not stated),active: 154% [activator]
25,COc1ccc(NS(=O)(=O)c2csc(C(=O)Nc3ccccc3)c2)cc1,inconclusive: 96%

row,Compound,percent activity (GTP binding)
1,Cn1[nH]c(C(F)(F)F)c(C=Nc2ccc(Cl)cc2)c1=O,inactive: 103%
2,CCC(C)N1C(=O)S/C(=C/c2ccc(N3CCOCC3)cc2C)C1=O (configuration not stated),inconclusive: 104%
3,NC(=O)N1CCN(C(=O)c2ccco2)CC1,inconclusive: 103%
4,CC(C)c1ccccc1NC(=O)COC(=O)c1ccc(Cl)c(S(=O)(=O)N2CCCCCC2)c1,inactive: 99%
5,CCNC(=O)Nc1ccc(-n2nc(C)c(C(=O)OCC)c2C)nc1,inactive: 97%
6,CC(=O)CSc1ncnc2c1cnn2-c1ccccc1,inactive: 100%
7,O=C(Nc1c2c(nn1-c1ccc(F)cc1)CS(=O)C2)c1ccc(S(=O)(=O)N2CCOCC2)cc1 (configuration not stated),inactive: 98%
8,CC(=O)C1=C(O)C(=O)N(CCCn2ccnc2)C1c1ccc(Cl)cc1 (configuration not stated),inactive: 97%
9,CCC(C)(C)NC(=O)C1CCN(S(=O)(=O)c2cccs2)CC1,inconclusive: 171%
10,CC(c1nccs1)N(C)c1nc2nonc2nc1N(C)C (configuration not stated),inactive: 99%
11,CCCC(Oc1ccc(Br)cc1)c1nc2c3cc(OC)c(OC)cc3nc(=S)n2[nH]1 (configuration not stated),inconclusive: 88%
12,O=C(COc1cccc(NC(=O)c2ccco2)c1)c1ccc(F)cc1,inconclusive: 105%
13,CCCCNC(=S)NC(=O)c1ccccc1Br,inconclusive: 102%
14,Cn1c(=O)c2c(ncn2Cc2nnc(N)s2)n(C)c1=O,inactive: 96%
15,CCn1c(NC(=O)Nc2cccc(C)c2C)cc2sccc21,inconclusive: 103%
16,CCC(=O)Nc1ccc2c(c1)OCCO2,inconclusive: 103%
17,Cn1c(=O)c2cc(S(=O)(=O)Nc3cc(C(=O)O)cc(C(=O)O)c3)ccc2n(C)c1=O,inconclusive: 88%
18,Cc1cnc(CNC(=O)c2ccc(OC3CCN(C(=O)C4CC4)CC3)cc2)cn1,inactive: 97%
19,Cc1ccc(C(=O)Nc2ccccc2C(=O)O)cc1S(=O)(=O)NCc1ccccc1,inconclusive: 93%
20,O=C(NCc1cccnc1)C(=O)Nc1nc2ccccc2s1,inconclusive: 92%
21,Cc1ccc2nc(-c3ccc(NC(=O)COC(=O)c4ccc([N+](=O)[O-])o4)cc3)sc2c1,inconclusive: 108%
22,O=C(Nc1ccc2nc(-c3cccs3)c(-c3cccs3)nc2c1)N1CCOCC1,inconclusive: 93%
23,COc1ccc(NC(=S)N2CCCN(Cc3cc(C)ccc3C)C2)cc1,inactive: 96%
24,CCCn1nc2cc(C(=O)N(CC)c3ccc(OC)cc3)ccc2c1OCC,inconclusive: 105%
25,COc1cccc(/C=N/n2cnnc2)c1OCc1ccccc1,inconclusive: 105%

row,Compound,percent activity (GTP binding)
1,COc1cc(CCNc2ccc3nnc(-c4ccccc4)n3n2)cc(OC)c1OC,active: 73%
2,CC1Cc2ccccc2N1C(=O)CN1C(=O)CN(C)C(=O)c2ccccc21 (configuration not stated),inconclusive: 105%
3,O=C(CN1C(=O)c2ccccc2S1(=O)=O)N1CCN(c2ccc(F)cc2)CC1,inconclusive: 106%
4,Cc1ccc(NC(=O)Nc2cccc(Cl)c2)c(C(=O)O)c1,inconclusive: 87%
5,COc1cc(NC(=O)c2ccc(COc3ccccc3Br)o2)cc(OC)c1OC,inconclusive: 103%
6,CCCNC(=O)COc1ncnc2sc(C)c(C)c12,inconclusive: 102%
7,Nc1nc(CSC(=S)N2CCCCC2)nc(Nc2ccccc2)n1,inconclusive: 90%
8,Cn1c(N/N=C/c2ccccc2)nc2sc3c(c2c1=O)CCC3,inconclusive: 77%
9,CN(C)c1ccc(N/C(N)=N/c2nc(C(F)(F)F)cc(C(F)(F)F)n2)cc1,inactive: 94%
10,Cc1nc(N)nc(Nc2ccc(Cl)cc2)c1Br,inconclusive: 104%
11,CCN(CC)CCn1c(NCc2ccc3c(c2)OCO3)nc2ccccc21,inactive: 101%
12,O=C1OC(Cc2ccccn2)C(O)=C1C1=NCCCN1 (configuration not stated),inconclusive: 100%
13,Cc1cc(N/N=C/c2ccc(O)cc2O)nc(-c2ccccc2O)n1,inactive: 81%
14,CC(C)c1nc(NCCO)c2nnn(Cc3ccccc3)c2n1,inactive: 99%
15,NS(=O)(=O)c1ccc(Nc2nc(-c3ccc(F)cc3)cs2)cc1,inactive: 102%
16,Cc1cc(-c2nn(-c3ccccc3F)cc2CN(C)CC(O)CO)c(C)s1 (configuration not stated),inactive: 93%
17,CC(C)NC(=O)C(=O)NCCN1CCN(C(=O)c2ccc(C(C)(C)C)cc2)CC1,inconclusive: 96%
18,CCCCOc1ccc(/C(N)=N/O)cc1,inactive: 103%
19,CCNc1nc(SC)nc(N(C#N)CC(=O)OC)n1,inconclusive: 103%
20,Fc1ccc(/C=C2\CCCC3=C2Nc2ncnn2C3c2ccc(F)cc2)cc1 (configuration not stated),inactive: 97%
21,CCOc1cc(CNCc2ccncc2)cc(Cl)c1OC,inconclusive: 104%
22,Cn1cc(-c2nnnn2-c2ccccc2)c(=O)c2ccccc21,inconclusive: 96%
